Reference: CN115028726A (ZHEJIANG TERUISI PHARMACEUTICAL INC, dated 2022)

B1: 优化纳米抗体N12 (Fc fusion)
chain: QVQLQESGGGLVQPGGSLRLSSAASGSTYLRFSMGWFRQVPGKGLEGVAAIGGDGRTSYADSVKGRFTISKDNSKNTLYLDMNSLRAEDTAVYYSAAAVLLDGSFSLLAPLVPYKYDYWGQGTLVTVSS[human IgG4 Fc with S228P (EU numbers) left out here]
B2: 优化纳米抗体N13 (Fc fusion)
chain: QVQLQESGGGLVQPGGSLRLSAAASGSTYLRFSMGWFRQVPGKGLEGVAAIGGDGRTSYADSVKGRFTISKDNSKNTLYLDMNSLRAEDTAVYYAAAAVLLDGSFSLLAPLVPYKYDYWGQGTLVTVS[human IgG4 Fc with S228P (EU numbers) and a few adjoining residues left out here]

Biological target: T1, 人PD-1蛋白(Acro PD1-HB2F2) (human, UniProt Q15116 partial chain, limits assumed)
T1 construct: Commercial recombinant human PD-1 protein coated on the ELISA plate; also called 抗原PD-1蛋白; human PD-1
Test: ELISA, human PD-1 protein coated at 20 ng/mL, antibody titrated from 1000 ng/mL

T1 sequence (Q15116 25-167 limits assumed): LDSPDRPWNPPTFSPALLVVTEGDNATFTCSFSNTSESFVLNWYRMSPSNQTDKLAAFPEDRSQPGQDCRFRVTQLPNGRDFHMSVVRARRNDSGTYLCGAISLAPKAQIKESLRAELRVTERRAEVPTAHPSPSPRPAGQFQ

Row | Binder | EC50
1 | B1 | 0.0153 µg/mL
2 | B2 | 0.0199 µg/mL
